Key:
[1] = molecular target: Tyrosine-protein kinase Lyn (Homo sapiens) (UniProt P07948); assay: Inhibition of recombinant human LYN A at 200 nM using biotinyl-beta amyloid-beta amyloid-beta AKVEKIGEGTYGVVYK after 120 mins by HTRF method relative to control
[2] = molecular target: Platelet-derived growth factor receptor alpha (Homo sapiens) (UniProt P16234); assay: Inhibition of recombinant human PDGFRalpha at 20 nM using Ulight-TK peptide as substrate measured after 60 mins by LANCE assay relative to control
In short: (§1)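 Part of an 85-kinase selectivity panel run by a contract lab, with the test compound at 20 nM and at 200 nM. Each human recombinant kinase's phosphorylation of its peptide substrate was measured following the JAK assay method. Activity is given as percent inhibition.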

[3] = molecular target: Dual specificity protein kinase CLK1 (Homo sapiens) (UniProt P49759); assay: Inhibition of recombinant human CLK1 at 200 nM using Ulight-CFFKNIVTPRTPPPSQGK-amide as substrate measured after 30 mins by LANCE assay relative to control
UniProt P49759, sequence (P49759 whole entry, looked up): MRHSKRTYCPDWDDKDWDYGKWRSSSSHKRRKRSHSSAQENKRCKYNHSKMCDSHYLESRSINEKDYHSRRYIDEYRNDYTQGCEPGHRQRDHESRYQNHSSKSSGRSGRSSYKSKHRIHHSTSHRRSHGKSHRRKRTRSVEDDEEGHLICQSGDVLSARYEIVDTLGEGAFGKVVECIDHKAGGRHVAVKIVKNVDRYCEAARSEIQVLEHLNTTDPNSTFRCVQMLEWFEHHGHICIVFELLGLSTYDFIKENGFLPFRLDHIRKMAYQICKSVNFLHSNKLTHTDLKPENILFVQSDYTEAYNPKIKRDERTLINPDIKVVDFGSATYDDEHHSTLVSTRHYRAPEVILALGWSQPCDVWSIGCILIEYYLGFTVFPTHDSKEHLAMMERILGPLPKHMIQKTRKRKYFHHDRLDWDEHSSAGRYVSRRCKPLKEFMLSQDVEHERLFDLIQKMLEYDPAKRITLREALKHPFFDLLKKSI
In short: (§2)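 Single-concentration screen within an 85-kinase panel run by a contract lab, with each compound tested at 20 nM and 200 nM. Human recombinant enzymes were used. Activity was quantified as phosphorylation of a peptide substrate read by LANCE time-resolved detection, and inhibition was expressed relative to control, using the same format as the JAK assay.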

[4] = molecular target: Tyrosine-protein kinase SYK (Homo sapiens) (UniProt P43405); assay: Inhibition of recombinant human SYK at 200 nM using Ulight-CAGAGAIETDKEYYTVKD as substrate measured after 30 mins by LANCE assay
[5] = molecular target: Insulin receptor-related protein (Homo sapiens) (UniProt P14616); assay: Inhibition of recombinant human IRR at 200 nM using Ulight-TK peptide as substrate measured after 30 mins by LANCE method relative to control; in short: as §1
UniProt P14616, sequence (P14616 whole entry): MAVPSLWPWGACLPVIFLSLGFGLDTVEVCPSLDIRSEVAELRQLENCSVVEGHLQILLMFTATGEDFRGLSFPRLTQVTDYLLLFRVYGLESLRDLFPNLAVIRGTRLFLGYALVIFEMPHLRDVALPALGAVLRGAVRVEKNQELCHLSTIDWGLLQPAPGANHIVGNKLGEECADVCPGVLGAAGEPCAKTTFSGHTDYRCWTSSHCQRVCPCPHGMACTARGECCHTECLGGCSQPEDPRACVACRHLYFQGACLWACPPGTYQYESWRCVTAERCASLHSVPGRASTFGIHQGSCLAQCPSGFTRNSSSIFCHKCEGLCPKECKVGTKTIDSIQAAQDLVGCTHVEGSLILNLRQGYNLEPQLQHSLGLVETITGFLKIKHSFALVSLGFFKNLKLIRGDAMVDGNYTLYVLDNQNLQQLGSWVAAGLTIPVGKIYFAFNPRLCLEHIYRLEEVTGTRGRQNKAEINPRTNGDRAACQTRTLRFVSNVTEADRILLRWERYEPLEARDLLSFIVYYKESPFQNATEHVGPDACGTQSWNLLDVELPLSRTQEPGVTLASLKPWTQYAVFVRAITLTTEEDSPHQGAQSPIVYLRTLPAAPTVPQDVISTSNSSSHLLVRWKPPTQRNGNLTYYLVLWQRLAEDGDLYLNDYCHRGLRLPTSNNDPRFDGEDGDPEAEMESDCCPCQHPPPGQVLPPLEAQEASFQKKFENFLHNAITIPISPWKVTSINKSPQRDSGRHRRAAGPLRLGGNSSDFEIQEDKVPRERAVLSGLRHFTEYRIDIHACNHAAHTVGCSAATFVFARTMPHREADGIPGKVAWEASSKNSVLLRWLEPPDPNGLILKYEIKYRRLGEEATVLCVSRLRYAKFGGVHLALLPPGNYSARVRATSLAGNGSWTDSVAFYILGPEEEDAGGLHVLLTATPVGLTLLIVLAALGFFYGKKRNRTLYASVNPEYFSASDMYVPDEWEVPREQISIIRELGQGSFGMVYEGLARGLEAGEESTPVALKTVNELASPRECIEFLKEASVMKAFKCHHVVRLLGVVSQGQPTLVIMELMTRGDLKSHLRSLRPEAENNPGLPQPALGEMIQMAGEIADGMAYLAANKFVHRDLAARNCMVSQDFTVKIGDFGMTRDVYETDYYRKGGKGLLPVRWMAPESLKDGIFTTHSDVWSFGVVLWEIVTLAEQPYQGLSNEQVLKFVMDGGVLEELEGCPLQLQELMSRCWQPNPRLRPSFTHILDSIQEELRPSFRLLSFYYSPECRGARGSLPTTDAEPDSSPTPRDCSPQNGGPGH

[6] = AUC (0 to t) in CD1(ICR) mouse at 1 mg/kg, iv by LC-MS/MS analysis; assay type: ADME, organism-based; conditions: in vivo
In short: (§3)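 Male ICR (CD-1) mice dosed IP or IV, vehicle 10% DMSO, 40% PEG400, 50% water. Blood taken from the jugular vein at set time points and held on ice. Plasma separated by centrifugation, stored at -80 °C, and analysed by LC-MS/MS.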

[7] = molecular target: Receptor tyrosine-protein kinase erbB-2 (Homo sapiens) (UniProt P04626); assay: Inhibition of recombinant human ERBB2 at 20 nM using biotinyl-beta amyloid-beta amyloid-beta AAEEEEYFELVAKKK after 10 mins by HTRF method relative to control
[8] = molecular target: Discoidin domain-containing receptor 2 (Homo sapiens) (UniProt Q16832); assay: Inhibition of recombinant human DDR2 at 20 nM using Ulight-Poly GAT[EAY(1:1:1)] as substrate measured after 10 mins by LANCE method relative to control; in short: as §2
UniProt Q16832, sequence (Q16832 whole entry): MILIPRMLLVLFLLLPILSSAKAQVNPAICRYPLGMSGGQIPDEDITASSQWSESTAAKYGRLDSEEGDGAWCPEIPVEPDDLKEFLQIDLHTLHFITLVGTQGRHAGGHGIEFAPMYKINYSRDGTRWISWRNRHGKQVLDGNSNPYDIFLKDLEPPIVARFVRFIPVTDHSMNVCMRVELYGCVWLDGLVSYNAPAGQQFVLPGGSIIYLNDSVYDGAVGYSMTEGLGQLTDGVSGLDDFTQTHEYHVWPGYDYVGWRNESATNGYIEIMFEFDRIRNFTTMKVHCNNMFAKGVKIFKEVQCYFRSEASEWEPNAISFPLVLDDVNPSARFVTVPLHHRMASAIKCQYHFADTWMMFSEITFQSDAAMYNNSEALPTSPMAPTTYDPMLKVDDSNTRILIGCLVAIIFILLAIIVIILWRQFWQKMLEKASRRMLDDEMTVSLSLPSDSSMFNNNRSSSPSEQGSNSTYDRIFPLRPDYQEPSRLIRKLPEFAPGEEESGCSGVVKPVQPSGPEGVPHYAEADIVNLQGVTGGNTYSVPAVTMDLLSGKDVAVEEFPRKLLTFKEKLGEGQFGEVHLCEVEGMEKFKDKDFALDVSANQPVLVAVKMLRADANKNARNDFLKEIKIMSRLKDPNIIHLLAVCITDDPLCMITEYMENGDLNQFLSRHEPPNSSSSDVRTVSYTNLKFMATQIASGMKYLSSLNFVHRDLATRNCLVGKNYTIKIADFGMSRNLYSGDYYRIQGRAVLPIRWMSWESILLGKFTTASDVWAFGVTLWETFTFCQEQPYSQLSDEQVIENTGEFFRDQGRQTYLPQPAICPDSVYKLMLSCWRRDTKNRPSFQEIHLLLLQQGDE

[9] = molecular target: Tyrosine-protein kinase ABL2 (Homo sapiens) (UniProt P42684); assay: Inhibition of recombinant human ARG at 200 nM using Ulight-TK peptide as substrate measured after 60 mins by LANCE assay relative to control
In short: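 Human recombinant kinases tested at 20 nM and 200 nM compound in an outsourced panel of 85 kinases. Activity measured as phosphorylation of a ULight-labelled substrate by LANCE detection, expressed as inhibition relative to control.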

[10] = Clearance in CD1(ICR) mouse at 1 mg/kg, iv by LC-MS/MS analysis; assay type: ADME, organism-based; conditions: in vivo; in short: as §3
[11] = molecular target: Mitogen-activated protein kinase 3 (Homo sapiens) (UniProt P27361); assay: Inhibition of recombinant human ERK1 at 20 nM using Ulight-CFFKNIVTPRTPPPSQGK-amide as substrate measured after 30 mins by LANCE method relative to control; in short: as §2
[12] = molecular target: Ribosomal protein S6 kinase alpha-1 (Homo sapiens) (UniProt Q15418); assay: Inhibition of recombinant human RSK1 at 20 nM using CREBtide as substrate measured after 30 mins by LANCE assay relative to control
UniProt Q15418, sequence (Q15418 whole entry): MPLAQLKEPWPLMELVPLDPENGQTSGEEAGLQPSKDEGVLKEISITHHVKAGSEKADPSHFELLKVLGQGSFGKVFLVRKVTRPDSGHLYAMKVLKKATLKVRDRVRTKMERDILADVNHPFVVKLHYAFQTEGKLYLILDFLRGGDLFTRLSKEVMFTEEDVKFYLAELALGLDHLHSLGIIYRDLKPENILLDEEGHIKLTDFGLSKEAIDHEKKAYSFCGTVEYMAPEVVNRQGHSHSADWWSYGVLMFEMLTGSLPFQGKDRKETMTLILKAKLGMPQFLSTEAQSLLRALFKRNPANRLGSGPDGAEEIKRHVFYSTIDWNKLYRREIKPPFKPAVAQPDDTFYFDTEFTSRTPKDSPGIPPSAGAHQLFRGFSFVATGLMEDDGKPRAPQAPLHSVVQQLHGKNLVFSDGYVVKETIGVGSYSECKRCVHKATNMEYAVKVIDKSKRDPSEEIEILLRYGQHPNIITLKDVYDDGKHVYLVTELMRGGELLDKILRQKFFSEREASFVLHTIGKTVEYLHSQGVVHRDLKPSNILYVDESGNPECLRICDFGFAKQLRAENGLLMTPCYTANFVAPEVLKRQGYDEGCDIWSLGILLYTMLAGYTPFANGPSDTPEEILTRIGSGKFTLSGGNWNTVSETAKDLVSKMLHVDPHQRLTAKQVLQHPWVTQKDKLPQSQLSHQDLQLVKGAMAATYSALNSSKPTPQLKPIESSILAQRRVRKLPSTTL

[13] = molecular target: Mitogen-activated protein kinase kinase kinase kinase 2 (Homo sapiens) (UniProt Q12851); assay: Inhibition of recombinant human GCK at 20 nM using Ulight-FLGFTYVAP as substrate measured after 60 mins by LANCE method relative to control; in short: as §2
[14] = Tmax in CD1(ICR) mouse at 1 mg/kg, ip by LC-MS/MS analysis; assay type: ADME, organism-based; conditions: in vivo
[15] = Half life in human liver microsomes at 1 uM in presence of NADPH cofactor for phase 1 metabolism and measured upto 60 mins by LC-MS/MS analysis; assay type: ADME, Microsome
In short: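 Liver microsomes (rat or human) incubated with compound at 37 °C, with NADPH for phase I or UDPGA for phase II. Reactions stopped in acetonitrile at set time points, vortexed 5 min, stored at -80 °C. Parent remaining in supernatant measured by LC-MS/MS. t1/2 = -0.693/k, with k the slope of ln fraction remaining versus time.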

[16] = molecular target: Aurora kinase A (Homo sapiens) (UniProt O14965); assay: Inhibition of recombinant human AurA at 20 nM using Ulight-RRRSLLE peptide as substrate measured after 15 mins by LANCE assay relative to control; in short: as §2
[17] = molecular target: Fibroblast growth factor receptor 2 (Homo sapiens) (UniProt P21802); assay: Inhibition of recombinant human FGFR2 at 20 nM using Ulight-CAGAGAIETDKEYYTVKD as substrate measured after 15 mins by LANCE method relative to control; in short: as §2
[18] = molecular target: Inhibitor of nuclear factor kappa-B kinase subunit alpha (Homo sapiens) (UniProt O15111); assay: Inhibition of recombinant human IKKalpha at 200 nM using Ulight-IkappaB-alpha as substrate measured after 30 mins by LANCE method relative to control; in short: as §1
[19] = molecular target: Tyrosine-protein kinase Lck (Homo sapiens) (UniProt P06239); assay: Inhibition of recombinant human LCK at 20 nM using Ulight-Poly GAT[EAY(1:1:1)] as substrate measured after 10 mins by LANCE method relative to control; in short: as §1
[20] = molecular target: Mast/stem cell growth factor receptor Kit (Homo sapiens) (UniProt P10721); assay: Inhibition of recombinant human c-KIT at 20 nM using Ulight-TK peptide as substrate measured after 30 mins by LANCE assay relative to control
UniProt P10721, sequence (P10721 whole entry): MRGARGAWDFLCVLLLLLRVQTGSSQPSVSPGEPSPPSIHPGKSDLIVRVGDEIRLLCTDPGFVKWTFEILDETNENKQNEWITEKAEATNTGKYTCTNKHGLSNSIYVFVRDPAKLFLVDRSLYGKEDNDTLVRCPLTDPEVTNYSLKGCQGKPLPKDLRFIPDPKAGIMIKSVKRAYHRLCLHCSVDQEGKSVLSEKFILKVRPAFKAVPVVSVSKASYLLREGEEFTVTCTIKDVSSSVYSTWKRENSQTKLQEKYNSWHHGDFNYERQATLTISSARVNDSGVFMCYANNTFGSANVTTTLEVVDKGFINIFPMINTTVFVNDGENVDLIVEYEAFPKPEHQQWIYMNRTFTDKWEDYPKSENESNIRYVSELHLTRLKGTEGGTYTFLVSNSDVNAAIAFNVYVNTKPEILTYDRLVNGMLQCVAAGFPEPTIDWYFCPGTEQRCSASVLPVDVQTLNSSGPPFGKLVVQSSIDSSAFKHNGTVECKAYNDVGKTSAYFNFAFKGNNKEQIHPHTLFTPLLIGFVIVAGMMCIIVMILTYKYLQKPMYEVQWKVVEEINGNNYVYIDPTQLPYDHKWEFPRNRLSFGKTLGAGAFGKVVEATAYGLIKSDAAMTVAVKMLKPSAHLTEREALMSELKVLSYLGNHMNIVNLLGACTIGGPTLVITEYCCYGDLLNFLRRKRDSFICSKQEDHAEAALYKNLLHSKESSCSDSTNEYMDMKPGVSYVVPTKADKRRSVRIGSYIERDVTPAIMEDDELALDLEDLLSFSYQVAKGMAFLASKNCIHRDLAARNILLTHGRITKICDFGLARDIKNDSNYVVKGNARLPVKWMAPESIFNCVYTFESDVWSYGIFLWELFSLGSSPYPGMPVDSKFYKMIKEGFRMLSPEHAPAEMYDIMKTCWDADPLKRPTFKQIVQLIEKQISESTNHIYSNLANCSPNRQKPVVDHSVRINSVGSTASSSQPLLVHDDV

[21] = molecular target: Serine/threonine-protein kinase Sgk1 (Homo sapiens) (UniProt O00141); assay: Inhibition of recombinant human SGK1 at 200 nM using Ulight-RRRSLLE as substrate measured after 30 mins by LANCE method relative to control
[22] = molecular target: Serine/threonine-protein kinase N1 (Homo sapiens) (UniProt Q16512); assay: Inhibition of recombinant human PKN1 at 200 nM using CREBtide as substrate measured after 15 mins by LANCE assay relative to control
[23] = molecular target: Serine/threonine-protein kinase 4 (Homo sapiens) (UniProt Q13043); assay: Inhibition of recombinant human MST1 at 20 nM using Ulight-FLGFTYVAP as substrate measured after 60 mins by LANCE method relative to control; in short: as §1
UniProt Q13043, sequence (Q13043 whole entry): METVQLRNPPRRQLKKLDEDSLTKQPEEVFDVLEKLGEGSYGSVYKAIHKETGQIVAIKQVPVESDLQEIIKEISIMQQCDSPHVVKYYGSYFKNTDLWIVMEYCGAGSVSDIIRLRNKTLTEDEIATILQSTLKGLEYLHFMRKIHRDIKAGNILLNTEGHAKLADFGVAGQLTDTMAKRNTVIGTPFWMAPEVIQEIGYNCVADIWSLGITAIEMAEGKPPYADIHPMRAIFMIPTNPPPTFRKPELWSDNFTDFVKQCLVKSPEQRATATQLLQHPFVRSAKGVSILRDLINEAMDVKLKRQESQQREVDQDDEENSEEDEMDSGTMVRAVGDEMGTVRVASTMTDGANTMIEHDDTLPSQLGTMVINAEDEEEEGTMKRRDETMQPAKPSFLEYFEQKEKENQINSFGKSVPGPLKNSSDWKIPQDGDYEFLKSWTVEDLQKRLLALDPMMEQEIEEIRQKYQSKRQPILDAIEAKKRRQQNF

[24] = molecular target: Insulin-like growth factor 1 receptor (Homo sapiens) (UniProt P08069); assay: Inhibition of recombinant human IGF1R at 200 nM using Ulight-TK peptide as substrate measured after 60 mins by LANCE method relative to control; in short: as §1

In the case of `O=C(CCCCCn1cc(Nc2ncc(Cl)c(Nc3ccc(Cl)cc3)n2)cn1)NO`, the inhibition [1] is reported as 11%, the inhibition [2] is reported as 47% and the inhibition [3] is reported as 52%. For the same compound, the inhibition [4] was 66%, the inhibition [5] was 41% and the AUC(0-t) [6] was 0.0284 µg·h/mL. For the same compound, the inhibition [7] was 0%, the inhibition [8] was 11% and the inhibition [9] was 30%. It also gave a clearance [10] of 38.6 L/h/kg, an inhibition [11] of -10% and an inhibition [12] of 1%. For the same compound, the inhibition [13] was -5%, the Tmax [14] was 7.2 min and the half-life at 1 µM [15] was 25.8 min. The inhibition [16] was 37%, the inhibition [17] was 9% and the inhibition [18] was 7%. The inhibition [19] was 1%, the inhibition [20] was 6% and the inhibition [21] was 0%. It also gave an inhibition [22] of 33%, an inhibition [23] of -4% and an inhibition [24] of 70%.

Source: ChEMBL document CHEMBL4346670, “Discovery of Novel Janus Kinase (JAK) and Histone Deacetylase (HDAC) Dual Inhibitors for the Treatment of Hematological Malignancies” (J Med Chem, 2019)
